Assay results from PubChem BioAssay AID493208 (National Center for Advancing Translational Sciences (NCATS), 2011).
Hit rate of the full screen: of about 44,000 compounds, about 340 (0.77%) were called active. About 5% were inconclusive and are not listed. Calls come from the whole dose curve; as a rule, active = well fitted inhibition curve with a large enough effect; inconclusive = small, poorly fitted or top-dose-only effect; inactive = flat fitted curve, though single readings scatter. The list shows a part of the results.

assay: Acumen qHTS Assay for Inhibitors of the mTORC1 Signaling Pathway in MEF (Tsc2-/-, p53-/-) Cells: Sytravon; conditions: phospho-rpS6 immunofluorescence/PI, 24 h; series mostly up to 38.3 µM; activity change, negative = inhibition: at the top concentration;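 note: plate controls were DMSO for no effect and rapamycin for full effect; nearly all actives have a fitted effect of over 50% in size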
How it was run: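 Tsc2-/-, p53-/- MEFs (empty-vector stable line) in DMEM + 10% FBS were treated with compounds 24 h at 37 degree Celsius, fixed, and immunostained for phospho-rpS6 (Alexa-488) with propidium iodide counterstain. Laser-scanning cytometry gave % positive cells, normalized against 7.5 nM rapamycin and DMSO.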

SMILES | activity change, negative = inhibition
O=S(=O)(NCc1ccc(Cl)cc1)c1ccc(N2CCCCS2(=O)=O)cc1 | inactive: -18.9%
CCOc1ccc(NC(=O)NCCN2CCN(c3ccccc3F)CC2)cc1 | inactive: -7.49%
COc1cccc(NC(=O)c2ccc(-c3nc(COc4ccc(C)cc4)c(C)o3)cc2)c1 | inactive: -4.62%
Cc1ccc2c(c1)c1c(c(=O)n(-c3ccccc3C)c(=O)n1CC(=O)NCC1CCCO1)n2C (stereo not drawn) | inactive: 2.54%
Cc1ccc(C)c(NC(=O)CCCN2C(=O)C(c3ccccc3)Oc3cccnc32)c1 (stereo not drawn) | inactive: -3.61%
O=C(CNC(=O)c1ccc(Cl)cc1)OCc1cc(=O)n2nc(C3CCCCC3)sc2n1 | inactive: -3.86%
Nc1c(C(=O)Nc2ccc(Br)cc2)sc2nc(-c3ccncc3)ccc12 | inactive: 2.18%
COc1ccc(S(=O)(=O)N(CC(=O)Nc2cccnc2)c2ccc(C)cc2)cc1OC | inactive: 10.1%
COc1cc2c(=O)n(CCC(=O)NCC3CCCO3)c(=O)n(CC(=O)Nc3ccc(F)cc3)c2cc1OC (stereo not drawn) | inactive: -12.2%
Cc1ccc(O)c(NC(=O)CCS(=O)(=O)c2nc(-c3ccc4c(c3)OCO4)cc(C(F)(F)F)n2)c1 | inactive: -21.7%
Cc1ccc(-n2nnc(-c3nsc(NC(=O)c4ccc(C)c(C)c4)n3)c2C)cc1 | inactive: 2.32%
CCc1ccc(CNC(=O)CCn2c(=O)c3cccn3c3ccc(F)cc32)cc1 | inactive: 0%
CCOc1ccccc1CNC(=O)c1cc(-c2ccc(C)c(C)c2)nc2ccccc12 | inactive: 9.26%
CCn1c(CN2CCCCC2)nc2cc(NC(=O)c3ccc([N+](=O)[O-])cc3)ccc21 | inactive: -15.3%
CCOc1ccccc1NC(=O)COc1ccc(S(=O)(=O)NC2CCCCC2)cc1 | inactive: -15.9%
COc1cccc2sc(N3CCN(C(=O)CCS(=O)(=O)c4ccc(F)cc4)CC3)nc12 | inactive: -1.85%
CCCS(=O)(=O)N1CCC(n2c(C(F)(F)F)nc3cccnc32)CC1 | inactive: 7.04%
Cc1ccsc1CN(C(=O)c1oc2ccccc2c1C)C1CCS(=O)(=O)C1 (stereo not drawn) | inactive: -1.05%
Cc1ccc(CNC(=O)C(=O)NCC(c2cccnc2)N2CCN(c3ccccc3F)CC2)cc1 (stereo not drawn) | inactive: -0.369%
CCn1c(=O)c2sccc2n2c(CCC(=O)Nc3ccc(OC)c(Cl)c3)nnc12 | inactive: 22.1%
Cc1ccc(C(=O)Nc2nc(-c3ccccc3)ns2)cc1 | inactive: -0.401%
Cc1ccc(NC(=O)Cn2nnc(C(=O)NCCc3ccccc3)c2N)cc1C | inactive: -4.45%
Cc1oc2ncn(C)c(=O)c2c1C(=O)NCCCN(Cc1ccccc1)C(C)C | inactive: 1.14%
CC(C)Oc1ccc(CNC(=O)C2CCN(c3nc4ccccc4n(C)c3=O)CC2)cc1 | inactive: -3.91%

SMILES | activity change, negative = inhibition
CCc1ccc(C2NC(=O)c3[nH]nc(-c4cccc(OC)c4)c32)cc1 (stereo not drawn) | inactive: -11.9%
CS(=O)(=O)N1CCc2cc(C(=O)Nc3cccc(F)c3)ccc21 | inactive: -10.6%
COc1ccccc1CC(=O)Nc1ccc2nc(N3CCC(C)CC3)cc(C)c2c1 | inactive: 1.36%
Cc1ccc(C)c(Cn2c3ccccc3c3cnn(CC(=O)NC(C)c4ccccc4)c(=O)c32)c1 (stereo not drawn) | inactive: -4.32%
CCOC(=O)c1ccc(-c2ccc(/C=C(\C#N)C(=O)Nc3ccc(C)cc3OC)o2)cc1 | inactive: -1.63%
CCCNC(=O)CN1CCN(c2ncc(NC(=O)c3ccc(Cl)cc3)cc2C(=O)O)CC1 | inactive: 0.554%
CCCOc1ccccc1C1Oc2nc(SC)nnc2-c2ccccc2N1C(C)=O (stereo not drawn) | inactive: -4.38%
COCCNC(=O)Cn1ncc2c(C)n(Cc3ccc(C)cc3)c(C)c2c1=O | inactive: 3.16%
CCOc1ccc(C(=O)c2cn(Cc3ccc(F)cc3)c3ccc(F)cc3c2=O)cc1 | inactive: -6.69%
Cc1ccc(C)c(CNC(=O)c2cnc3sc(N4CCCC4)nn3c2=O)c1 | inactive: 1.22%
Cc1ccc(CN(Cc2ccco2)C(=O)c2oc3ccc(C)cc3c2C)cc1 | inactive: -7.47%
Cc1cccc(-n2ncc3c(N4CCCCCC4)ncnc32)c1 | inactive: 1.17%
CC(C)(C)C(=O)OC1=CN(Cc2ccccc2)S(=O)(=O)c2ccccc21 | inactive: -23.7%
CSc1ccc(C2c3c(oc4ccccc4c3=O)C(=O)N2CCCN2CCOCC2)cc1 (stereo not drawn) | inactive: -1.9%
CCc1ccc(NC(=O)CSc2nc3ncccc3[nH]2)cc1 | inactive: -9.15%
COc1cccc(NC(=O)c2c(C(=O)Nc3ccccc3)sc3nc(C)cc(=O)n23)c1 | inactive: 0.214%
CCOc1ccc(/C=C/C(=O)Nc2sc3c(c2C(=O)OC)CCC3)cc1 | inactive: 4.43%
CCC(Cc1ccccc1)NC(=O)c1csc2c1CCCCC2 (stereo not drawn) | inactive: -10.4%
COc1cccc(Cn2c(SCc3ccc(C(=O)N4CCC(C)CC4)cc3)nc3ccncc32)c1 | inactive: 0.526%
COc1ccc2c(C)cc(SCC(=O)Nc3nsc(-c4ccc(C(C)(C)C)cc4)n3)nc2c1 | inactive: 1.41%
CC(C)(C)OC(=O)N1CCC(c2c(C(=O)NCCN3CCOCC3)cnn2-c2ccccc2)CC1 | inactive: -9.55%
COc1ccc2oc(-c3ccc(C)c(NC(=O)c4ccc(N5CCCCC5)c([N+](=O)[O-])c4)c3)nc2c1 | inactive: -4.55%
COc1ccc(CNC(=O)CN2CCSc3ccccc32)c(OC)c1 | inactive: -4.37%
CCN(CC)C(=O)Cn1c(SCC(=O)Nc2ccc(C)c(C)c2)nc2ccccc21 | inactive: 0%
